# Data taken from the supplement of paper PMC10126150.
# Sequences with one replicate were seen in a single cluster, so their values are uncertain.
# Tested on: ATP
# Test: switch fluorescence ratio, 500 uM ATP over buffer (Cy3 cluster intensity, sum of 5 cycles each) (fold (ratio)); higher = stronger signal-on switching upon ATP binding; sequences stand for … in TCGTCGGCAGCGTCAGATGTGTATAAGAGACAGTTTTTTTTTTTTTTTTTTTTTTTTT…TC
# Conditions: aptamer strand: ATP DNA aptamer (quencher-CACCTGGGGGAGTATTGCGGAGGAAGG + anchor), 100 nM annealed; ATP concentration: 500 uM; one replicate
# In short: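 Per cluster, summed Cy3 intensity from the target cycles was divided by that from the buffer cycles to give the fluorescence ratio, then averaged per switch-domain sequence. Clusters outside 100-1000 RFU were excluded. The Cy3-labelled switching-strand clusters, on a modified Illumina MiSeq flow-cell, were annealed to 100 nM quencher-labelled ATP aptamer and imaged in selection buffer, then after 15 min with 500 uM ATP at 22 °C, for five cycles with NaOH stripping and re-annealing between them.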
# 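Note: ATP exposure 15 min at 22 °C before imaging.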
row,Sequence,switch fluorescence ratio
1,TCTTTGCTTT,1.04
2,TTTTTATTAC,1.03
3,TCGCACCCCC,2.98
4,ATTTTTCAAG,0.987
5,CAGTACAGT,1.01
6,AGCTAATTC,1.17
7,AGGATGCTGG,1.08
8,TTGGTGTAAA,1.04
9,ACCATCAAGC,1.07
10,GTCCCTAAGT,0.991
11,CATCTCACC,1.04
12,CTCAGCCAAT,2.47
13,GAAGTACCGC,1.15
14,TTGCTCAATG,1.02
15,TATAACCCTG,0.982
16,GTGCTTAGCT,0.975
17,TGGCGCAGAT,1.05
18,AGGCTGTG,1.06
19,TATATATCTA,1.02
20,TCGAGGAAAT,1.06
21,ACGAAGGGCA,1.03
22,TGTACTAAGG,1.07
23,ATAGGGCACG,0.961
24,TCTTTAAGGG,0.942
25,GGTCAATGCC,1.05
26,CAAGCGGGCA,1.03

row,Sequence,switch fluorescence ratio
1,TTATCATAAT,0.965
2,TTCGGGCACC,1.01
3,TGTTGGAC,0.949
4,CTAGTTAAAG,0.985
5,CGAACAGACA,1.05
6,CGTTCTACGC,1.11
7,GAGGGCCTAG,0.971
8,ACGCAGGTCC,1.27
9,TAAGAAGACC,1.03
10,GGTAAAGCGA,1.03
11,TATCTGCCTT,1.5
12,AATTATTATG,0.963
13,GGTTACCCTG,0.988
14,TGTTTCGGT,1
15,TGGTTCGTG,0.985
16,TCAGTTGCGG,1.01
17,AAAATTACTG,1.29
18,AGTGCCATTC,1.03
19,GACGGGAGAA,1.05
20,GCGGCGAGTA,0.978
21,AAGAATATTG,1.03
22,AACTAACGG,1.33
23,TGTTTGTTTA,1.01
24,GGGATCCATT,0.996
25,GTAGGGCCCG,1.02
26,GTGGACTGAA,0.982

row,Sequence,switch fluorescence ratio
1,AAGCTGAGGC,0.998
2,TTATTAGGCC,0.976
3,TCGTGCTTTC,1.02
4,CATGTTTTAT,1.06
5,AGCAAAAGAC,1.9
6,AGTCCGGAAA,1.2
7,AGTATTGATG,0.984
8,CTTTGAACCG,1.01
9,ACCCCGGTTT,1.01
10,AAGTTCCTGG,1.07
11,AAACTGTATC,1.04
12,CTGCGGTATC,1.82
13,GGACACAAAG,1.03
14,ATTGACTTGG,1.05
15,TTTAGGTGGA,1.05
16,CATCTATGTT,1.03
17,CGTCAGAGCA,1.02
18,GCACTACTAG,1.08
19,GAAGACTCCA,1.06
20,GACATACTCG,1.11
21,GCTTGATTGC,1.07
22,GCGCGGCA,0.965
23,CGACACCTTG,0.997
24,TCCGAGTCGG,1.1
25,TGCTGGACGT,1.01
26,TGGAAAGTTG,0.997

row,Sequence,switch fluorescence ratio
1,CTGGAAGCAC,3.01
2,CAAGGGTACA,1.04
3,GAAGCTTAGT,0.966
4,GATCAAACAT,1.01
5,CAAAGTCGTT,0.995
6,GTCTCATAGC,0.978
7,ACCGAACACT,1.18
8,GGTTCCTTCT,1.06
9,CCGATCTGTC,1.18
10,CGTGCCCCGT,1.02
11,GAGTTAGCCT,0.981
12,TTCAGTGCGT,1.04
13,ACGGAGATTT,1
14,GTTACACCTT,1.06
15,CCGTGTTTGT,1.04
16,CTCAAATGTT,1.01
17,CGAAGAAGT,0.964
18,TGGCGAGCTT,1.01
19,TGTCATTTTT,1
20,GTTGCCACAT,1.02
21,CAGTACTGAG,0.998
22,GAGCATCTAA,1.02
23,TTATTGTGGG,1.03
24,TCAAAGCACT,1.15
25,GGATCGGGCC,1.01
26,GGAGTGATGT,1.09

row,Sequence,switch fluorescence ratio
1,AAGGTGATT,1.01
2,CGACACTTGG,1
3,TGATCATATA,0.976
4,GAGGGGCACC,1
5,AGTTTATCCC,0.973
6,ACTACTATGG,1.03
7,TCGTTATACC,1.14
8,TCGTAGATGG,1
9,ACTCGGGCCC,0.998
10,CGAGTCGGTA,0.995
11,CCGTATAGGC,1.23
12,GTAACGCGC,1.02
13,CACTTGATA,1.02
14,AATAGCTCCG,1.05
15,GAAATGATCT,0.965
16,GGTATGAGCT,1.01
17,TGTTCTAACG,0.989
18,GGCCTGCTTA,0.967
19,CCGACAGGTC,1.48
20,CAATCGGATC,1
21,TTATGCTGCA,0.981
22,TAGTTAATTC,0.982
23,AGTGAAAGTA,1
24,GGCGAAAAAC,1.02
25,AATGCTATGA,0.974
26,GGCGATAGAC,1.01

row,Sequence,switch fluorescence ratio
1,GCAGGAGGTG,1.07
2,AGCCGGGATT,0.98
3,AGGTGGATAT,1.04
4,CTAACTTAAA,1.01
5,GCAATAATAA,3.18
6,TAGAGACTTT,1.05
7,TGAAGAGCCT,1.06
8,TTAAGAAGCA,1.02
9,GAGTATAGCG,0.989
10,GAGTCATCGT,1
11,TGAGGTGAGC,0.992
12,AGGGTTTTAA,1.01
13,TGGCGCGCG,0.906
14,TCTTAAGTAT,0.999
15,AATTGCAACC,1.06
16,CACAGAATTT,1.03
17,GTTGGCACCG,1.02
18,CAATAGAGCA,1.03
19,TGAAGTCGG,0.989
20,CGCCAATGTG,1.07
21,GAGTTTTAAT,1.05
22,AGATTCATTA,1.01
23,TTTCGCTCGG,1
24,CCCGAGATTA,1.02
25,TTGAAACCAG,1.03
26,AGGCCGCCTG,1.03

row,Sequence,switch fluorescence ratio
1,TAACTTTGGT,1.12
2,TGGTCGAAC,0.996
3,TGATCACTCT,1.02
4,TTCGTTGTCT,1.01
5,TTTACTAATG,0.98
6,GAGTGGCGCG,0.999
7,TTTGTCGTCC,0.987
8,CTGCGCATCA,1.57
9,CTCCTAGAGG,1.02
10,AGAATGTA,0.995
11,GGGACATGAA,1.01
12,TGGTAAATGC,1.06
13,GTGCTATACA,1.03
14,AGGGATTATG,1.01
15,AGAAAGTAAA,0.994
16,GTTGGCCTAG,0.984
17,GCCGACAACG,1.05
18,CAGCGT,1.05
19,GAGGGCCGT,0.972
20,CACGGGGCGG,0.992
21,TCGAAATGTG,0.991
22,CGTCGGACCA,0.99
23,ATTCGACGT,0.958
24,GCCAGGTACT,1.45
25,ACTCGCTCTG,1.09
26,CTGAGGTTTG,0.954

row,Sequence,switch fluorescence ratio
1,CTTTTAACGC,1.08
2,AATAGCTTGC,0.897
3,GTGTGTTGCA,0.974
4,GCGCTTGAGT,1.02
5,CGGTCGGTGA,0.975
6,GGTTTCGTGC,1
7,TATTTTTCGA,1.01
8,TCGTACTAAG,1.01
9,CGGACAGGTG,1.64
10,TAGAACTGTT,1.09
11,AAGTGGCGAC,0.992
12,ATTGCAGTCC,1.01
13,TTACTTGTTG,0.988
14,TCATATTAA,1
15,GGTCAAGATT,0.991
16,AGTGTGCCGA,0.972
17,TTGCCTCTCG,1.03
18,ATGCATGCGC,1.06
19,TATGGTGGTG,1.04
